Laboratory results reported in publication PMC12136788.
Some of the results follow.

T1: UNK ZnF1-3 (human, UniProt Q9C0B0 31-174)
T1 sequence: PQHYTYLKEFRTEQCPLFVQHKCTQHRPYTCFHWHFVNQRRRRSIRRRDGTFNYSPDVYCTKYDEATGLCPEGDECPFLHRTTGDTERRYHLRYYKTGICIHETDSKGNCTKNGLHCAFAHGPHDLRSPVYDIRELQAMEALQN

B1: chr11:86538636:86538637:-_ENSMUSG00000047126_ENSMUST00000103186|perfect_dup|motif|central (ssRNA)
RNA: GGGAGUUCUACAGUCCGACGAUCUAACCAUUUCUCCAAAAGCUGUUUUCGCCCUUGCUGAAGUACAGGCCUACAAAGCUCGGAGGAUUCGUAUUUGUUGAGCUGUCCCUGGUCCAAAAGGAUACCAAAGUACUGAAGUAGAGGCAACAGAGGAUUGAGCAUCA
B2: chr7:141445308:141445309:+_ENSG00000106028_ENST00000265304|hu_hu|hu_hu_hu_mus_False|18_18 (ssRNA)
RNA: GGGAGUUCUACAGUCCGACGAUCUAUGAUUGUUGUUGCUUGCCGCCUCACAUUGUUUUUAUCCAUGUACUCGCCAUAGUCCACUUUCCCUUCCACAAAUAUACGAGCCCCCUUUUUCACAUAUUGAUAUGCCACAUCUCUGAGCAACAGAGGAUUGAGCAUCA
B3: 33663629_33663749_535_3pUTR_ENSG00000163539_ENST00000461133|human|control|control (ssRNA)
RNA: GGGAGUUCUACAGUCCGACGAUCACAGUAAUACAAGCUUCUCUAACCACCUGGGAUCUAAGAUCCUUAGCUGAAAGUUUAAGUGCUCCAUCCAACAAUCGUAAAUGUUGAAAAAAGCAAUCAUACUGUGCAGCUCCAGCAACACAACAGAGGAUUGAGCAUCA
B4: 235577844_235582818_518_CDS_ENSG00000116957_ENST00000366601|human|control|control (ssRNA)
RNA: GGGAGUUCUACAGUCCGACGAUCCAGAGAAACUUCUUGCAACUUGCUCAGCUGACUUUGCUGUUUCAUAAUAGAGUCAAAACCGAUAGUCUCCACAGGUUUAUUUCCAAUUGUAACAAUUUGCUCUUUUCUAUCUUCCUCUGGCAACAGAGGAUUGAGCAUCA
B5: chr4:83987663:83987664:+_ENSG00000138663_ENST00000264389|hu_hu|FALSE|FALSE (ssRNA)
RNA: GGGAGUUCUACAGUCCGACGAUCACGUCCUUCGGUUAUCAUUUGAGAUGCUAUCUUUUCCGCCUUAGCUGCAGGGAUCUCUAAAAGAGCUCCAAGUUCUUCGAAGGUAAUAUUAUUAUAUAAUUUGCUUGCAGACAACAAAUUCAACAGAGGAUUGAGCAUCA
B6: chr3:10015032:10015033:+_ENSMUSG00000027533_ENSMUST00000029046|mus_mus|mus_mus_mus_hu_True|28_68 (ssRNA)
RNA: GGGAGUUCUACAGUCCGACGAUCGUUUUUACCAUCACAAGUGAUGAUACAAUCUGGCUUGGCCAUUGCAGCCAUCUUUCGCAAAGCUAUUCCCACUCCUAGCUCCUUCAUGUACUCAUCAAAGCCUUUGCUGUCCACCAGGCGCAACAGAGGAUUGAGCAUCA
B7: chr13:100201205:100201206:-_ENSMUSG00000052727_ENSMUST00000064762|mus_mus|FALSE|FALSE (ssRNA)
RNA: GGGAGUUCUACAGUCCGACGAUCUUCAGUGAUAUGAAGCACACUGGCACCCAGAGUAGGGUGAUCUGGAGACUGCCGACUAAAGUCCAUAGCAAGAGAAUGCUCAGGGGAUUCCUGGCCGAACUCAAUAGACAUAGAAGACUGCAACAGAGGAUUGAGCAUCA
B8: chr6:30688276:30688277:+_ENSG00000196230_ENST00000327892|hu_hu|FALSE|FALSE (ssRNA)
RNA: GGGAGUUCUACAGUCCGACGAUCCCGAUCUGGUUGCCACACUGACCAGCCUGGAUGUGCACGAUUUCCCUCAUGGUUAAAAUUUAAUUUUUUUGCUCGCCUCAAGGUAUGUAUGGGGCAAGAAAAUAAGUAAUUUUUUUUCUCCAACAGAGGAUUGAGCAUCA
B9: 197169363_197169483_249_CDS_ENSG00000177888_ENST00000367405|human|control|control (ssRNA)
RNA: GGGAGUUCUACAGUCCGACGAUCAUCAUCAUUUAAAUAUUUUAGCAAAUUCUUAUUAUACUGCAAAGAACUUAAAAGCUUUCUCUGAUCUGGAGAGGGAGGAAGUUCCUGGUAACAGUGAAGAGCUUCAGGAGUUGGUCUUCCCAACAGAGGAUUGAGCAUCA
B10: 63425985_63433263_8830_CDS_ENSMUSG00000030451_ENSMUST00000076226|mouse|control|control (ssRNA)
RNA: GGGAGUUCUACAGUCCGACGAUCACCGUGGAUUUUGCAGUCGAUUCCUGAGCUCCUGCACUGUUUUAUUGCAAUCUCAAUGUACCUGUGAUACUCUGCACAGUCACUUAGCAGGGGUACAGUGGUGUCAGUUUGGUUGAUAUUCAACAGAGGAUUGAGCAUCA
B11: 130310313_130313774_279_3pUTR_ENSMUSG00000026356_ENSMUST00000027602|mouse|control|control (ssRNA)
RNA: GGGAGUUCUACAGUCCGACGAUCCGAACCAAAACUCUAUCUGGCUUUUCUUGUGAUUGUAUCAUAGAAGAUAUCCCAUAUCUCUCUUUAGCAUAAUCUUCCGCCGCGUCCACGAUCUCCCGCGGCUUCUCCUGACCCUUACGGCAACAGAGGAUUGAGCAUCA
B12: 33014521_33027954_1110_CDS_ENSMUSG00000038831_ENSMUST00000042615|mouse|control|control (ssRNA)
RNA: GGGAGUUCUACAGUCCGACGAUCGCGGAACCUGGCUGAGCUGGAGCCGGCAGAGGGGCCUGCAAGAUCUUCCUUGGACGAAACUAGUCUUGGAGAGCUGCUUCCUGGUUCGAUUCUGAGUGACAACUUGUAAUUAUCAUCUUCCAACAGAGGAUUGAGCAUCA
B13: chr9:53391639:53391640:-_ENSMUSG00000032047_ENSMUST00000034547|mus_hu|motif|central (ssRNA)
RNA: GGGAGUUCUACAGUCCGACGAUCCACUUUUUGGGGAUCAAUCUCCAACAUUUUAAUGUUUGCUAGUACAACCAGACGGAAGGCUUCAUUUACUUCCCACAUUGCAAUAUCUUCUUUUUUCAAUCCCACAUCUUUAAGAACCAUCAACAGAGGAUUGAGCAUCA
B14: chr10:33211235:33211236:-_ENSG00000150093_ENST00000302278|hu_mus|FALSE|FALSE (ssRNA)
RNA: GGGAGUUCUACAGUCCGACGAUCCAGAAUGACUUCUGAAGAAAGAGAGUUGUAGGCAUCGAUGAUUAGCUGGAUCACAUUACUAGAGUUUCCAGACAGUGUGCCCACUGCUGACUUAGGAAUCAAAUUCUUCAAUUCCUUGUACAACAGAGGAUUGAGCAUCA

molecular target: T1, UNK ZnF1-3; assay: nsRBNS (natural sequence RNA bind-n-seq); RBNS binding buffer (assumed for nsRBNS): 25 mM Tris pH 7.5, 150 mM KCl, 3 mM MgCl2, 0.01% Triton X-100, 500 ug/ml BSA, 20 U/ml SUPERase-In, 4 C; UNK is unkempt and MSI1 is Musashi-1; names of the RNAs are library labels; protein concentration not given here; high values mean tight binding

Row | Binder | binding signal
1 | B1 | 1.18 enrichment R
2 | B2 | 0.688 enrichment R
3 | B3 | 0.966 enrichment R
4 | B4 | 0.832 enrichment R
5 | B5 | 0.9 enrichment R
6 | B6 | 0.852 enrichment R
7 | B7 | 1.14 enrichment R
8 | B8 | 0.896 enrichment R
9 | B9 | 2.52 enrichment R
10 | B10 | 0.446 enrichment R
11 | B11 | 0.582 enrichment R
12 | B12 | 0.965 enrichment R
13 | B13 | 1.03 enrichment R
14 | B14 | 0.797 enrichment R
